This note sets out measurements from the supplement of paper PMC11876631.

± gives the standard deviation of the averaged measurements. Laboratory Escherichia coli strains with one amino-acid change in an essential protein, pooled on minimal glucose agar with carbenicillin or gentamicin at twice the control MIC (plus kanamycin and chloramphenicol for the plasmids), 48 h. Fold change of barcode share against drug-free plates; higher = less susceptible. Active = above 20 in both replicates (the paper's putatively resistant). '<' = one read or none on drug, '>' = one read or none on a drug-free plate. Shares are relative, so most strains fall below 1 when a few take over. Listed are strains with at least 15 reads on both drug-free plates, and hits; most hits rest on fewer reference reads. Replicate rank correlation about 0.5. Edits are read from barcodes. Where only a bound is given, the exact number is not on record here.

This series has as its target Escherichia coli (laboratory strain). The series is described as follows: barcode share on antibiotic plates over drug-free plates; higher = less susceptible. As for the experimental part:
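A pool of E. coli strains, each edited to carry one amino-acid change in an essential protein, was grown for 48 h on minimal glucose agar with or without antibiotic; strain barcodes were sequenced; mean of two replicates.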

[1] abbreviates: antibiotic: carbenicillin, 2× MIC (3.1 µg/mL).
[2] abbreviates: antibiotic: gentamicin, 2× MIC (MIC 0.45 µg/mL).

B1: ispF V151A (protein)
chain: MRIGHGFDVHAFGGEGPIIIGGVRIPYEKGLLAHSDGDVALHALTDALLGAAALGDIGKLFPDTDPAFKGADSRELLREAWRRIQAKGYTLGNVDVTIIAQAPKMLPHIPQMRVFIAEDLGCHMDDVNVKATTTEKLGFTGRGEGIACEAAALLIKATK
As to B1, the “fold change of barcode share” value came to 0.45 ± 0.052 under setting [1] and 0.00336 ± 0.0026 under setting [2].

B2: ispF L49Q (protein)
chain: MRIGHGFDVHAFGGEGPIIIGGVRIPYEKGLLAHSDGDVALHALTDALQGAAALGDIGKLFPDTDPAFKGADSRELLREAWRRIQAKGYTLGNVDVTIIAQAPKMLPHIPQMRVFIAEDLGCHMDDVNVKATTTEKLGFTGRGEGIACEAVALLIKATK
For B2, the “fold change of barcode share” value under setting [1] came out at 0.387 ± 0.055 and the “fold change of barcode share” value under setting [2] worked out at 0.0249 ± 0.0069.

B3: ispF L49W (protein)
chain: MRIGHGFDVHAFGGEGPIIIGGVRIPYEKGLLAHSDGDVALHALTDALWGAAALGDIGKLFPDTDPAFKGADSRELLREAWRRIQAKGYTLGNVDVTIIAQAPKMLPHIPQMRVFIAEDLGCHMDDVNVKATTTEKLGFTGRGEGIACEAVALLIKATK
Regarding B3, the “fold change of barcode share” value runs as follows: under setting [1], 3.63 ± 4.2; under setting [2], 0.145 ± 0.18.

B4: ispF L49A (protein)
chain: MRIGHGFDVHAFGGEGPIIIGGVRIPYEKGLLAHSDGDVALHALTDALAGAAALGDIGKLFPDTDPAFKGADSRELLREAWRRIQAKGYTLGNVDVTIIAQAPKMLPHIPQMRVFIAEDLGCHMDDVNVKATTTEKLGFTGRGEGIACEAVALLIKATK
As for B4, the “fold change of barcode share” value is, setting by setting: under setting [1], 0.345 ± 0.11; under setting [2], 0.00812 ± 0.0052.

B5: ispG V121A (protein)
chain: MHNQAPIQRRKSTRIYVGNVPIGDGAPIAVQSMTNTRTTDVEATVNQIKALERVGADIVRVSVPTMDAAEAFKLIKQQVNVPLVADIHFDYRIALKVAEYGVDCLRINPGNIGNEERIRMAVDCARDKNIPIRIGVNAGSLEKDLQEKYGEPTPQALLESAMRHVDHLDRLNFDQFKVSVKASDVFLAVESYRLLAKQIDQPLHLGITEAGGARSGAVKSAIGLGLLLSEGIGDTLRVSLAADPVEEIKVGFDILKSLRIRSRGINFIACPTCSRQEFDVIGTVNALEQRLEDIITPMDVSIIGCVVNGPGEALVSTLGVTGGNKKSGLYEDGVRKDRLDNNDMIDQLEARIRAKASQLDEARRIDVQQVEK
B5: the “fold change of barcode share” value under setting [1] was 0.323 ± 0.044 and the “fold change of barcode share” value under setting [2] was below 0.00459.

B6: ispG L224Q (protein)
chain: MHNQAPIQRRKSTRIYVGNVPIGDGAPIAVQSMTNTRTTDVEATVNQIKALERVGADIVRVSVPTMDAAEAFKLIKQQVNVPLVADIHFDYRIALKVAEYGVDCLRINPGNIGNEERIRMVVDCARDKNIPIRIGVNAGSLEKDLQEKYGEPTPQALLESAMRHVDHLDRLNFDQFKVSVKASDVFLAVESYRLLAKQIDQPLHLGITEAGGARSGAVKSAIGQGLLLSEGIGDTLRVSLAADPVEEIKVGFDILKSLRIRSRGINFIACPTCSRQEFDVIGTVNALEQRLEDIITPMDVSIIGCVVNGPGEALVSTLGVTGGNKKSGLYEDGVRKDRLDNNDMIDQLEARIRAKASQLDEARRIDVQQVEK
Turning to B6, the “fold change of barcode share” value under setting [1] came out at 0.2538 ± 0.0021 and the “fold change of barcode share” value under setting [2] worked out at 0.312 ± 0.06.

B7: ispG L224A (protein)
chain: MHNQAPIQRRKSTRIYVGNVPIGDGAPIAVQSMTNTRTTDVEATVNQIKALERVGADIVRVSVPTMDAAEAFKLIKQQVNVPLVADIHFDYRIALKVAEYGVDCLRINPGNIGNEERIRMVVDCARDKNIPIRIGVNAGSLEKDLQEKYGEPTPQALLESAMRHVDHLDRLNFDQFKVSVKASDVFLAVESYRLLAKQIDQPLHLGITEAGGARSGAVKSAIGAGLLLSEGIGDTLRVSLAADPVEEIKVGFDILKSLRIRSRGINFIACPTCSRQEFDVIGTVNALEQRLEDIITPMDVSIIGCVVNGPGEALVSTLGVTGGNKKSGLYEDGVRKDRLDNNDMIDQLEARIRAKASQLDEARRIDVQQVEK
Regarding B7, the “fold change of barcode share” value is 0.478 ± 0.31 under setting [1] and 0.00463 ± 0.00031 under setting [2].

B8: ispG L227A (protein)
chain: MHNQAPIQRRKSTRIYVGNVPIGDGAPIAVQSMTNTRTTDVEATVNQIKALERVGADIVRVSVPTMDAAEAFKLIKQQVNVPLVADIHFDYRIALKVAEYGVDCLRINPGNIGNEERIRMVVDCARDKNIPIRIGVNAGSLEKDLQEKYGEPTPQALLESAMRHVDHLDRLNFDQFKVSVKASDVFLAVESYRLLAKQIDQPLHLGITEAGGARSGAVKSAIGLGLALSEGIGDTLRVSLAADPVEEIKVGFDILKSLRIRSRGINFIACPTCSRQEFDVIGTVNALEQRLEDIITPMDVSIIGCVVNGPGEALVSTLGVTGGNKKSGLYEDGVRKDRLDNNDMIDQLEARIRAKASQLDEARRIDVQQVEK
Regarding B8, the “fold change of barcode share” value reads like this: under setting [1], 0.255 ± 0.023; under setting [2], 0.0249 ± 0.033.
